# Assay results as given in PubChem BioAssay (NCI).
#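 How tested: cells in 96-well plates exposed to compound for 48 hours at five concentrations. TGI marks complete inhibition of growth.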
# Key:
# Assay in all cases: DTP human tumour cell line panel, 48 h
# OVCAR-4 ovarian = tested on: OVCAR-4 ovarian
# DMS 273 small cell lung = tested on: DMS 273 small cell lung
# SW-620 colon = tested on: SW-620 colon
# KM12 colon = tested on: KM12 colon
# HT29 colon = tested on: HT29 colon
# SN12C renal = tested on: SN12C renal
# SK-OV-3 ovarian = tested on: SK-OV-3 ovarian
# EKVX NSCLC = tested on: EKVX NSCLC
# TK-10 renal = tested on: TK-10 renal
# U251 CNS = tested on: U251 CNS
# CCRF-CEM leukemia = tested on: CCRF-CEM leukemia
# SK-MEL-5 melanoma = tested on: SK-MEL-5 melanoma
# SK-MEL-28 melanoma = tested on: SK-MEL-28 melanoma
# RXF 393 renal = tested on: RXF 393 renal
# SNB-75 CNS = tested on: SNB-75 CNS
# NCI-H460 lung = tested on: NCI-H460 lung
# HOP-92 NSCLC = tested on: HOP-92 NSCLC
# OVCAR-8 ovarian = tested on: OVCAR-8 ovarian
# HOP-18 NSCLC = tested on: HOP-18 NSCLC
# DLD-1 colon = tested on: DLD-1 colon
# UO-31 renal = tested on: UO-31 renal
# MALME-3M melanoma = tested on: MALME-3M melanoma
# CAKI-1 renal = tested on: CAKI-1 renal
# MOLT-4 leukemia = tested on: MOLT-4 leukemia
# RXF-631 renal = tested on: RXF-631 renal
# SNB-78 CNS = tested on: SNB-78 CNS
# A498 renal = tested on: A498 renal
# RPMI-8226 leukemia = tested on: RPMI-8226 leukemia
# LOX IMVI melanoma = tested on: LOX IMVI melanoma
# HL-60(TB) leukemia = tested on: HL-60(TB) leukemia
# OVCAR-3 ovarian = tested on: OVCAR-3 ovarian
# 786-0 renal = tested on: 786-0 renal
# SNB-19 CNS = tested on: SNB-19 CNS
# SF-268 CNS = tested on: SF-268 CNS
# UACC-62 melanoma = tested on: UACC-62 melanoma
# OVCAR-5 ovarian = tested on: OVCAR-5 ovarian
# ACHN renal = tested on: ACHN renal
# HOP-62 NSCLC = tested on: HOP-62 NSCLC
# M19-MEL melanoma = tested on: M19-MEL melanoma
# NCI-H522 lung = tested on: NCI-H522 lung
# LXFL 529 NSCLC = tested on: LXFL 529 NSCLC
# NCI-H23 lung = tested on: NCI-H23 lung
# UACC-257 melanoma = tested on: UACC-257 melanoma
# HCT-15 colon = tested on: HCT-15 colon
# HCC-2998 colon = tested on: HCC-2998 colon
# COLO 205 colon = tested on: COLO 205 colon
# HCT-116 colon = tested on: HCT-116 colon
# NCI-H226 lung = tested on: NCI-H226 lung
# SR leukemia = tested on: SR leukemia
# IGROV1 ovarian = tested on: IGROV1 ovarian
# M14 melanoma = tested on: M14 melanoma
# K-562 leukemia = tested on: K-562 leukemia
compound,measurement,setting,value
CCCCOC(=O)Oc1cc2c(c(OC)c1OC)-c1ccc(SC)c(=O)cc1[C@@H](NC(C)=O)CC2,TGI,OVCAR-4 ovarian,97.7 µM
same,TGI,DMS 273 small cell lung,> 100 µM
same,TGI,SW-620 colon,> 100 µM
same,TGI,KM12 colon,0.0361 µM
same,TGI,HT29 colon,> 100 µM
same,TGI,SN12C renal,51.3 µM
same,TGI,SK-OV-3 ovarian,4.64 µM
same,TGI,EKVX NSCLC,> 100 µM
same,TGI,TK-10 renal,> 100 µM
same,TGI,U251 CNS,> 100 µM
same,TGI,CCRF-CEM leukemia,> 100 µM
same,TGI,SK-MEL-5 melanoma,0.0134 µM
same,TGI,SK-MEL-28 melanoma,68.8 µM
same,TGI,RXF 393 renal,0.583 µM
same,TGI,SNB-75 CNS,4.64 µM
same,TGI,NCI-H460 lung,0.364 µM
same,TGI,HOP-92 NSCLC,0.477 µM
same,TGI,OVCAR-8 ovarian,> 100 µM
same,TGI,HOP-18 NSCLC,> 100 µM
same,TGI,DLD-1 colon,> 100 µM
same,TGI,UO-31 renal,97.7 µM
same,TGI,MALME-3M melanoma,> 100 µM
same,TGI,CAKI-1 renal,70.6 µM
same,TGI,MOLT-4 leukemia,24.3 µM
same,TGI,RXF-631 renal,4.77 µM
same,TGI,SNB-78 CNS,> 100 µM
same,TGI,A498 renal,0.224 µM
same,TGI,RPMI-8226 leukemia,24.1 µM
same,TGI,LOX IMVI melanoma,> 100 µM
same,TGI,HL-60(TB) leukemia,< 0.01 µM
same,TGI,OVCAR-3 ovarian,< 0.01 µM
same,TGI,786-0 renal,60 µM
same,TGI,SNB-19 CNS,> 100 µM
same,TGI,SF-268 CNS,> 100 µM
same,TGI,UACC-62 melanoma,59 µM
same,TGI,OVCAR-5 ovarian,> 100 µM
same,TGI,ACHN renal,86.7 µM
same,TGI,HOP-62 NSCLC,> 100 µM
same,TGI,M19-MEL melanoma,> 100 µM
same,TGI,NCI-H522 lung,< 0.01 µM
same,TGI,LXFL 529 NSCLC,90.6 µM
same,TGI,NCI-H23 lung,2.08 µM
same,TGI,UACC-257 melanoma,> 100 µM
same,TGI,HCT-15 colon,> 100 µM
same,TGI,HCC-2998 colon,54 µM
same,TGI,COLO 205 colon,0.0168 µM
same,TGI,HCT-116 colon,> 100 µM
same,TGI,NCI-H226 lung,0.235 µM
same,TGI,SR leukemia,> 100 µM
same,TGI,IGROV1 ovarian,> 100 µM
same,TGI,M14 melanoma,> 100 µM
same,TGI,K-562 leukemia,> 100 µM
